Data as given in publication PMC8938449.
These are yes or no findings as the source states them, for the method shown. In cells and extracts the contact can be indirect. Some binding calls cover weakened binding; strength is not graded here. For part of these data: Tags and fused reporters may be left off the sequences shown.

Experiments:
[1] = biological target: T1, KH mutant of Papi (I69N/V142N) (Bombyx) (UniProt H9JD76); experiment: co-IP; Papi-Flag (WT or mutant) immunoprecipitated from BmN4 lysates with anti-Flag antibody on Dynabeads Protein G, 4 °C, 2 h; binding buffer with 150 mM potassium acetate and 0.5% Triton X-100; western blot for endogenous Siwi
T1 sequence: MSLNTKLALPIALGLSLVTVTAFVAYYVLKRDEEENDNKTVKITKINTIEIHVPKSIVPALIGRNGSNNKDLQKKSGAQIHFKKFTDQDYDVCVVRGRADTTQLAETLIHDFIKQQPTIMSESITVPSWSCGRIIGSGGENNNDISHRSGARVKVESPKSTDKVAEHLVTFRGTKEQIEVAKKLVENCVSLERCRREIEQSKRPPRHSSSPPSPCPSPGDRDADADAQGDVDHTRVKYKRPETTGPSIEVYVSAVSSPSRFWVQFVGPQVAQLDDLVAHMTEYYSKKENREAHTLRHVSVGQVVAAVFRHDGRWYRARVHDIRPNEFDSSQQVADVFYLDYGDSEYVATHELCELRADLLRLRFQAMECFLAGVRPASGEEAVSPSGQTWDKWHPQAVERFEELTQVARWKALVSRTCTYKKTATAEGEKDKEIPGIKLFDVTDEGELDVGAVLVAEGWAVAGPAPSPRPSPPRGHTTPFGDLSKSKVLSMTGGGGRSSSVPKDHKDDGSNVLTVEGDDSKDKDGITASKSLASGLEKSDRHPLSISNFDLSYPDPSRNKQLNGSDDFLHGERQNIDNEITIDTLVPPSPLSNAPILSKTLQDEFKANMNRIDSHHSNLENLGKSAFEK

[2] = biological target: T2, Papi1-480 mutant (Papi-1-480-3×Flag) (Bombyx) (UniProt H9JD76); experiment: as above
T2 sequence: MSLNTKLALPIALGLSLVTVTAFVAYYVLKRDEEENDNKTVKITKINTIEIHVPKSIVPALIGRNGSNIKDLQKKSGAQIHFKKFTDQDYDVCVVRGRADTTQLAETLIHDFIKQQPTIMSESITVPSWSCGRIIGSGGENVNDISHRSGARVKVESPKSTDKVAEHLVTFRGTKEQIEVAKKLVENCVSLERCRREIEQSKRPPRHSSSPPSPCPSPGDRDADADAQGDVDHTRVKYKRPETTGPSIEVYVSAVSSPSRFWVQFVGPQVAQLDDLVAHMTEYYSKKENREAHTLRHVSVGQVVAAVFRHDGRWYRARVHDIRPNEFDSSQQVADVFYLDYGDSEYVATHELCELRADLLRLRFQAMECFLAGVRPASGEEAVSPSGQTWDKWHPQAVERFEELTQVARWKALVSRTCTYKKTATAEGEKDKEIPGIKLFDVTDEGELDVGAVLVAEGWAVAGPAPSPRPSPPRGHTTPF

[3] = biological target: T3, Flag-tagged Papi (Papi-Flag), wild type (Bombyx) (UniProt H9JD76); experiment: as above
T3 sequence: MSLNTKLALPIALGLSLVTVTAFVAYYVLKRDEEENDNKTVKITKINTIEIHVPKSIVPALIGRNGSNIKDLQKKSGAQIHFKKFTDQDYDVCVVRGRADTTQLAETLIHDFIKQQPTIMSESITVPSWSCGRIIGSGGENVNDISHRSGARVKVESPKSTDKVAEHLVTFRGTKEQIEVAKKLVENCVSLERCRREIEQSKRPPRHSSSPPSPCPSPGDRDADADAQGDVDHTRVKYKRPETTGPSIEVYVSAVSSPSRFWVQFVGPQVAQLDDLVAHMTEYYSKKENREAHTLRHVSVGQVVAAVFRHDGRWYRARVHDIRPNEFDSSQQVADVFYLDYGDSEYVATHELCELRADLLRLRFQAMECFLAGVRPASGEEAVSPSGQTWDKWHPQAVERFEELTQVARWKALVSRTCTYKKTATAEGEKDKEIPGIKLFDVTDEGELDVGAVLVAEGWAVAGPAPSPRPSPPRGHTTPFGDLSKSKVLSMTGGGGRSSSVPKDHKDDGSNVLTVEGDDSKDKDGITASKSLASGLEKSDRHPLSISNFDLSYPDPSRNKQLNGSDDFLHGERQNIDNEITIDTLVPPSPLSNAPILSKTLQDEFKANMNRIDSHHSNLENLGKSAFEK

[4] = biological target: T4, Papi1-222 mutant (Papi1-222-Flag) (Bombyx) (UniProt H9JD76); experiment: as above
T4 sequence: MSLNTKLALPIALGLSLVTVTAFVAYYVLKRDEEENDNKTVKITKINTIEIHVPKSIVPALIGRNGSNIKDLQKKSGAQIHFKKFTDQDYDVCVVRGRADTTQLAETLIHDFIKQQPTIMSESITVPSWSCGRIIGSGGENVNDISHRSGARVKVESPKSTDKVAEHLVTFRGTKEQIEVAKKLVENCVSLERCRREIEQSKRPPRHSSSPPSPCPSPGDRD

[5] = biological target: T5, Papi-Flag S547A mutant (Bombyx) (UniProt H9JD76); experiment: as above
T5 sequence: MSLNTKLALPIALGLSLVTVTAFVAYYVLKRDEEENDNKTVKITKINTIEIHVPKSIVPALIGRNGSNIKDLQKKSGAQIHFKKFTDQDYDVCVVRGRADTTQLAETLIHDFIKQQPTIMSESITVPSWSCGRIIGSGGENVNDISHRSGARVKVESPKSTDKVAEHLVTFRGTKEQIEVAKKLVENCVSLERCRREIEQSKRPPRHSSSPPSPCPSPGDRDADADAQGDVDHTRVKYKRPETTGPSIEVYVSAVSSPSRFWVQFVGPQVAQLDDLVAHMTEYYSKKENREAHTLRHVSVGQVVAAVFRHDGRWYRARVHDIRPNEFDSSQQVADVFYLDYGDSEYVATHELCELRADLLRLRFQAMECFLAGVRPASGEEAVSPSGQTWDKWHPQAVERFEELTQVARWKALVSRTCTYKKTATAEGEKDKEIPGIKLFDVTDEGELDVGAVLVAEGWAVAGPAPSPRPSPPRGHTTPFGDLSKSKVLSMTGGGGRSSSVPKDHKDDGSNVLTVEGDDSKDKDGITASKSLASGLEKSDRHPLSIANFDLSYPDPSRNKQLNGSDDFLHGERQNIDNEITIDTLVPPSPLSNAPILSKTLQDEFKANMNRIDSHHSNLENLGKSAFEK

[6] = biological target: T6, Papi, endogenous (Bombyx mori (endogenous in BmN4)) (UniProt H9JD76); experiment: co-IP; Papi complex immunoprecipitated from normal (Control) BmN4 lysates that contained Flag-Par-1 (cytoplasmic and mitochondrial materials); blots with anti-Siwi and anti-Flag
T6 sequence: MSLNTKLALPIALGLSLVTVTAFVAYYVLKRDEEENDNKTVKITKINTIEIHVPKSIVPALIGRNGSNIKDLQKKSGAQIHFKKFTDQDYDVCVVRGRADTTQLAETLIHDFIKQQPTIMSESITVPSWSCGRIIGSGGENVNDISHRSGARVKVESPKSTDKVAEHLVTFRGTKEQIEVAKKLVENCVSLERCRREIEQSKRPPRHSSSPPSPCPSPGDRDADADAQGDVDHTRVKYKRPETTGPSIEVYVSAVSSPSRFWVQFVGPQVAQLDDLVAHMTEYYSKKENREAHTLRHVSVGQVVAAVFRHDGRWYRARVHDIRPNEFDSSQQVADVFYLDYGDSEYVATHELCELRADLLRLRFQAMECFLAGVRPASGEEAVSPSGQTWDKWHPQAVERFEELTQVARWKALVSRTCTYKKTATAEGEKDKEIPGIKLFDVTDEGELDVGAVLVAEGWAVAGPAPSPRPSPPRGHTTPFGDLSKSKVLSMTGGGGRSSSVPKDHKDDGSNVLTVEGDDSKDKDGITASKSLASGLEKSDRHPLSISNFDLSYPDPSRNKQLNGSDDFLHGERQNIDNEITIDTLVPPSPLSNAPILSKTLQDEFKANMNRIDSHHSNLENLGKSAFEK

binding [1]: binds
binding [2]: binds
binding [3]: binds
binding [4]: no binding
binding [5]: binds
binding [6]: binds
B1: Siwi, endogenous (protein, UniProt A8D8P8 1-899)
chain: MSEPRGRGRARGRAGRGGDGGGPAPRRPGEQAGPSQQSMPPGPRPQPPSGWGPQSSVPPVRAGVPTPTAQAGRASHRVTPTTHEHPGDIDVQQRMQKLELGPHSSGGGDASSVVGRGSRRGGGRVLPETISILRTRPEAVTSKKGTSGTPLDLLANYFTVETTPKWGLYQYHVDISPEEDSTGVRKALMRVHSKTLGGYLFDGTVLYTVNRLHPDPMELYSDRKTDNERMRILIKLTCEVSPGDYHYIQIFNIIIRKCFNLLKLQLMGRDYFDPEAKIDIPEFKLQIWPGYKTTINQYEDRLLLVTEIAHKVLRMDTVLQMLSEYAATKGNNYKKIFLEDVVGKIVMTDYNKRTYRVDDVAWNVSPKSTFKMRDENITYIEYYYKKYNLRIQDPGQPLLISRSKPREIRAGLPELIYLVPELCRQTGLSDEMRANFKLMRSLDVHTKIGPDKRIEKLNNFNRRFTSTPEVVEELATWSLKLSKELVKIKGRQLPPENIIQANNVKYPAGDTTEGWTRDMRSKHLLAIAQLNSWVVITPERQRRDTESFIDLIIKTGGGVGFRMRSPDLVVIRHDGPIEYANMCEEVIARKNPALILCVLARNYADRYEAIKKKCTVDRAVPTQVVCARNMSSKSAMSIATKVAIQINCKLGGSPWTVDIPLPSLMVVGYDVCHDTRSKEKSFGAFVATLDKQMTQYYSIVNAHTSGEELSSHMGFNIASAVKKFREKNGTYPARIFIYRDGVGDGQIPYVHSHEVAEIKKKLAEIYAGVEIKLAFIIVSKRINTRIFVQRGRSGENPRPGTVIDDVVTLPERYDFYLVSQNVREGTIAPTSYNVIEDTTGLNPDRIQRLTYKLTHLYFNCSSQVRVPSVCQYAHKLAFLAANSLHNQPHYSLNETLYFL
